The supplement of paper PMC3724861
The other results are listed elsewhere or left out.

Tested on: T1, Caupolican (Caup) homeodomain DNA-binding domain
T1 sequence: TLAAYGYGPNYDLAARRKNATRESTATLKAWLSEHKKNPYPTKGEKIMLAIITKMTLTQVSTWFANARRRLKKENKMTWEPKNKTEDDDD
Assay: PBM E-score (8-mer, recovered from the published 9-mer minima) (E-score (dimensionless, -0.5 to 0.5)); Drosophila protein; higher = stronger relative binding preference, active = 0.31 or more
Experimental: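 Protein binding microarray (PBM): in vitro transcribed/translated Caupolican (Caup) homeodomain DNA-binding domain (residues 214-303) applied at 100 nM to a universal 8-mer PBM array (Agilent AMADID 015681). The 8-mer enrichment score (E-score, range -0.5 to 0.5) was computed, and each 9-mer score is the minimum E-score of its two constituent 8-mers. The E-score is the same for a 9-mer and its reverse complement; 0.31 is the stated binding threshold.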

Sequence | PBM E-score
ACGTTTCC | inactive: -0.0583
CGCTCGTC | inactive: -0.0959
ACTGCACG | inactive: -0.0621
AACCGATG | inactive: 0.0188
GCCCGACA | inactive: 0.0626
CGCGTCCG | ≥ -0.0557
ACGATGAC | inactive: 0.0356
GTCAATCA | inactive: 0.0914
AATGAGCC | inactive: -0.124
AAATGTCT | inactive: 0.106
ATCTTCCC | inactive: -0.0386
CCAAGATC | inactive: -0.0393
ATGCCTCG | ≥ -0.00058
ACCGGGCA | inactive: -0.171
AAAGCTGC | inactive: -0.0478
GGAGTGCC | inactive: -0.187
AGAGAGGG | inactive: -0.211
CATGCAGC | inactive: -0.0613
AACGGTGG | inactive: -0.138
AGAAGCTC | inactive: -0.137
CATAAGAG | inactive: -0.0264
AACTAGTT | inactive: 0.194
GTTCTCCA | inactive: 0.0206
CGACCAAA | ≥ 0.0331
CGTATGGA | inactive: -0.0565

Sequence | PBM E-score
AAATATAC | inactive: 0.177
GGATCATA | inactive: 0.00281
TAGGTGGA | ≥ 0.046
CCATATAG | inactive: -0.0336
GCTGAGTA | inactive: -0.0179
ATTAATGG | inactive: 0.19
ATATACCA | inactive: 0.172
CCAACTGG | inactive: -0.0571
ATTAACTA | ≥ 0.201
ATACCGAC | inactive: 0.034
ACTCGTAC | inactive: 0.135
GGCTAACA | inactive: 0.109
CCGGTGTA | inactive: 0.0793
AGTTAGAA | inactive: 0.00094
AACGGCCT | inactive: -0.161
CCTAAGTA | inactive: 0.0338
GGTGAACC | inactive: -0.089
CCCCGATA | inactive: -0.121
CTCGTGGC | inactive: -0.127
AGTCTATC | inactive: 0.073
CCCTTAAG | inactive: -0.0555
ATCCGATC | ≥ 0.167
ACAACATC | active: 0.356
GCTTATCA | inactive: 0.0595
AATAACGC | inactive: 0.0476

Sequence | PBM E-score
CTAAAAGA | ≥ 0.0807
AGCACTAT | inactive: 0.1
CGATCCAA | inactive: 0.0185
ATCGAATG | inactive: 0.116
CTATGTAA | active: 0.338
AGTGGCTG | inactive: -0.138
AGGCCTGA | inactive: -0.149
CACACTTA | inactive: 0.0946
GCAACGTA | inactive: 0.02
GAGGAGTA | inactive: -0.0343
GGGGTCCA | inactive: -0.258
CAAGGTAG | inactive: -0.0378
ACGAGGCA | inactive: -0.012
CGGTCGTA | inactive: 0.0409
GCAAAAGC | inactive: -0.0362
CGGCAAAA | inactive: -0.0139
CACGAGGC | inactive: -0.0738
GCCATCGA | inactive: -0.0979
CAGGAGGC | inactive: -0.159
CGCCGGAG | inactive: -0.199
AACTAAAC | inactive: 0.102
CTTTCGCA | inactive: -0.0864
CTTCGGTC | inactive: -0.0969
ATCTAAAT | inactive: 0.112
CAATTACC | inactive: -0.00996

Sequence | PBM E-score
GCTTAGTA | inactive: 0.0621
ATTCTCGA | inactive: 0.0405
ATCGTGAC | inactive: 0.139
CTGCTACC | inactive: 0.0224
AGTGAACG | inactive: -0.0721
CCATAGTA | inactive: 0.08
AAATACGA | ≥ 0.166
ACGCTACC | inactive: -0.129
ACTCCTTG | inactive: 0.0436
GCCAACCC | inactive: -0.161
GAGGTTAA | inactive: -0.0658
AGCGATTC | inactive: -0.0626
ATTTTATC | inactive: 0.153
AGAGGCCC | inactive: -0.192
ACGCTGAC | inactive: -0.0669
CAGGCCCA | inactive: -0.226
ATCGAAAC | inactive: -0.0231
GTACCAAC | inactive: 0.114
CCTGCGCA | inactive: -0.226
GCCTAAAA | inactive: -0.107
AGGAATCC | inactive: -0.082
CCAGTTCG | inactive: -0.0558
CTTACGCC | inactive: -0.0701
TACATCGA | active: 0.314
ATCGGGTA | inactive: -0.0219

Sequence | PBM E-score
ACGCGTTG | inactive: 0.0245
CAGTGACG | inactive: -0.0473
GCTGTTAA | inactive: 0.0966
ACAGCTAT | inactive: 0.145
CCGTCCTA | inactive: -0.0783
ACGGCACT | inactive: -0.0892
AAAACTCA | inactive: -0.00205
GAATGATA | inactive: 0.179
CATCGACC | inactive: -0.022
CGTGTGAG | inactive: -0.0281
TATGAAGA | inactive: 0.0466
GCATTTTA | inactive: 0.0692
AGATGTGA | inactive: 0.096
AAGCAATT | inactive: 0.11
AATCTGAA | inactive: 0.0863
CGTCTCGC | inactive: -0.162
AGCAACTC | inactive: 0.00314
CAAGCAGG | inactive: -0.0901
CACAGACC | inactive: -0.0439
CTCCGTTC | inactive: -0.061
AATCTAGC | inactive: -0.075
TCCCAAAA | inactive: -0.0172
TAGCATCA | inactive: 0.106
GCATCAGC | inactive: -0.0861
CACTCTCA | inactive: -0.0658

Sequence | PBM E-score
ACAGATCA | ≥ 0.172
GGCGTGGA | inactive: -0.174
CACATAGA | inactive: 0.0991
TAAAATTA | inactive: 0.035
AGAACCCG | inactive: -0.133
ATTTATCC | inactive: 0.0759
TCATAACA | inactive: 0.205
ATCTCTAA | inactive: -0.0218
CCTTACGA | inactive: -0.0366
AGTGTTCG | inactive: 0.133
CGATACCC | inactive: -0.0449
AATAACGA | inactive: 0.159
AATCGAGT | inactive: 0.0367
CATACATA | inactive: 0.286
ATACACGA | active: 0.33
AGACAGGC | inactive: -0.00368
AAGGTCCT | inactive: -0.138
GATGTTTA | inactive: 0.247
ATAATAGA | inactive: 0.13
CGACCACC | inactive: -0.128
ATCCGCGG | inactive: -0.111
GTGACCCA | inactive: -0.128
CTACCACC | inactive: -0.0357
CGTGCACG | ≥ 0.109
AATTGAAT | inactive: 0.12

Sequence | PBM E-score
CCACCACC | inactive: -0.135
ACTCAAGC | inactive: 0.0448
GATCGCAC | inactive: 0.0699
CTGGACCC | inactive: -0.286
ACGATCTA | inactive: 0.0896
CGGTAAAG | inactive: 0.0318
GACAGCAA | inactive: 0.0496
ACTGGTCG | inactive: -0.00017
AGGGCGAG | inactive: -0.194
AGTAATCC | inactive: 0.187
ACGAGGGC | inactive: -0.125
GCCTCATA | inactive: -0.118
ACGGATGG | inactive: -0.0652
CATTGCCC | inactive: -0.0987
ATGTTAAA | active: 0.353
CCCTGATA | inactive: 0.0111
GAAGAGTC | ≥ 0.0427
CGTCGATA | inactive: 0.0346
ATCAAAAC | inactive: 0.0898
GACTATCA | inactive: 0.00646
CAGTTGGA | inactive: -0.0504
CTGATTCA | inactive: 0.0761
TCTCACAA | inactive: 0.048
AAAGGCTC | inactive: -0.138
AATATGCA | inactive: 0.0205

Sequence | PBM E-score
ATCGCAAC | ≥ 0.0975
AATGAGCT | inactive: 0.0203
GATGTAGC | inactive: 0.166
GGAAGTCC | inactive: -0.184
ATCAGACC | inactive: -0.0214
AGGAAAGG | inactive: -0.0732
ACACGAAG | inactive: 0.174
TTAAGGAA | inactive: -0.0151
CTAGATCA | inactive: 0.0404
ACCGTGAG | inactive: -0.116
GATGCAAC | inactive: 0.0677
CTTGCTGC | inactive: -0.0454
CGTTCAAC | inactive: 0.0706
CGCAGTAC | inactive: -0.0308
GACGGGCA | inactive: -0.108
AGCTCATC | inactive: -0.167
AACTCGAA | inactive: -0.05
CATGGCTA | inactive: 0.0608
GCTTATTA | inactive: 0.0892
ACGTTATG | inactive: 0.174
CCTAACAG | inactive: -0.0355
TCGCCTAA | inactive: -0.0379
GGACAGAA | inactive: 0.0584
ATGAGCGC | inactive: -0.117
CGCTCTTC | inactive: -0.182

Sequence | PBM E-score
AAAGATTA | inactive: 0.0965
AAACTAGT | inactive: 0.19
GATTCCGA | inactive: -0.0693
CGTCGCGC | inactive: -0.187
GGACGATA | inactive: 0.00416
AGCCGCGA | inactive: -0.218
ATACGAGG | inactive: 0.00478
CAGACTCA | inactive: 0.0303
GTACACCA | inactive: 0.238
ACTCGCCG | inactive: -0.0788
CATCCCGC | inactive: -0.146
GACCCGCC | inactive: -0.165
ACAACGGA | inactive: 0.16
ATCACATG | inactive: 0.286
GCCAATAC | inactive: 0.047
ATAAGTGA | inactive: 0.0155
AATCAGGA | inactive: 0.0539
AGCGTAGA | inactive: -0.0756
AGCTGCCC | inactive: -0.142
ATTCATTG | inactive: 0.102
GCTTGCGA | inactive: -0.0639
ACCACGAC | inactive: 0.0487
AGATGGCT | inactive: -0.0854
AAGCTCAC | inactive: -0.119
CCCCTCGG | inactive: -0.234
